Laboratory results: PubChem BioAssay AID651687 (Broad Institute, 2012)
Hit rate of the full screen: of about 350,000 compounds, about 600 (0.17%) were called active. The shares of active, inactive and inconclusive entries below differ from those in the screen.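 Rule for the calls: active = every replicate shows inhibition of at least 40%; inconclusive = mean inhibition at least 40% but some replicate below; inactive = the rest.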 More than one record can exist for a structure, and the calls need not agree.

Experiment: inhibitors of PGC1a acetylation signal, primary screen, cell-based, U2OS, AlphaScreen, inhibitor mode (AID 651687);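 note: 0% = neutral control wells and 100% = positive control wells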
Conditions: AlphaScreen anti-acetyl-lysine, at 15.6 µM, active compounds read high, with virally co-expressed GCN5 acetyltransferase

Row | SMILES | inhibition
1 | CCc1ccc(NC(=O)CSc2nnc(-c3cnccn3)n2Cc2ccco2)cc1 | inconclusive: 45.6%
2 | C[C@H](CO)N1C[C@H](C)[C@@H](CN(C)C(=O)CCN2CCCCC2)Oc2ncc(C#Cc3ccccn3)cc2C1=O | inconclusive: 47.6%
3 | CCCN(CCC)CCNC(=O)c1cc2c(=O)n(CC)c3ccccc3c2s1 | inconclusive: 43%
4 | O=C(C[C@@H]1CC[C@@H]2[C@H](COC[C@@H](O)CN2S(=O)(=O)c2ccc(Cl)cc2)O1)N[C@@H]1CCN(Cc2ccccc2)C1 | inconclusive: 48.4%
5 | COc1ccc2c(c1)CCc1c(C(=O)NCCCn3ccnc3)noc1-2 | inconclusive: 40.5%
6 | COc1ccc(S(=O)(=O)N(C)C[C@@H]2Oc3ccc(NC(=O)Cc4cn(C)c5ccccc45)cc3CC(=O)N([C@H](C)CO)C[C@@H]2C)cc1 | inactive: 8%
7 | Cc1cc(/C=C2\C(=N)N3N=C(C(C)C)SC3=NC2=O)c(C)n1Cc1ccccc1 | active: 48.5%
8 | COc1ccc(C(=O)N/N=C(/C)c2cccc(NC(=O)c3ccccc3F)c2)cc1 | inconclusive: 50.6%
9 | O=C(OCc1cnc(Cl)s1)c1cccs1 | active: 94.3%
10 | C[C@@H]1CCCCO[C@@H](CN(C)Cc2ccc3c(c2)OCO3)[C@@H](C)CN([C@@H](C)CO)C(=O)c2cc(NC(=O)Nc3ccc(C(F)(F)F)cc3)ccc2O1 | inactive: 6.54%
11 | Cc1ccc(OCC(=O)N2CC(C)OC(C)C2)c([N+](=O)[O-])n1 (centres undefined) | inconclusive: 42.8%
12 | CCC(=O)Nc1nnc(SCCOC)s1 | inconclusive: 2.93%
13 | Cc1cc(NC(=O)CCS(=O)(=O)c2nc(-c3ccccc3)cc(C(F)(F)F)n2)no1 | active: 89.9%
14 | O=c1[nH][nH]c(-c2ccccc2)c1C=Nc1ccccc1Cl | inconclusive: 41.2%
15 | COC(=O)C(=CC(=CN(C)C)C=C(C(=O)OC)C(=O)OC)C(=O)OC | inactive: 12.9%
16 | O=C(Nc1ccc2nc3ccccc3nc2c1)c1ccc(Br)cc1 | inactive: -3.06%
17 | CC1CCc2sc(C(=O)Nc3nnc(SCc4ccc(F)cc4)s3)cc2C1 (centres undefined) | active: 94%
18 | CC1CN(C2CCN(C(=O)c3cccc(Cl)c3)CC2)CC(C)O1 (centres undefined) | inconclusive: 47.8%
19 | CC(C)(O)C#Cc1ccc(C(=O)NC(CCCNC(N)=O)C(=O)O)s1 (centres undefined) | active: 81.8%
20 | O=C(O)c1cc(N2CCCCC2)ccn1 | inconclusive: 47.7%
21 | Cc1c(Cl)cccc1NS(=O)(=O)c1ccc2c(c1)C1C=CCC1C(c1ccc(C(=O)O)cc1)N2 (centres undefined) | active: 107%
22 | C[C@@H]1CN([C@H](C)CO)S(=O)(=O)c2ccc(C#CCN(C)C)cc2O[C@H]1CN(C)Cc1cccnc1 | inactive: -1.56%
23 | CC1CCN(C(=O)COC(=O)c2ccc(Br)o2)CC1 | inconclusive: 50.4%
24 | O=C(Nc1ccc(F)cc1)N1CC(=O)N2[C@@H](CO)[C@H](c3ccc(Br)cc3)[C@@H]2C1 | inconclusive: 55%
25 | COc1ccc(CN(Cc2cccn2C)C(=O)c2cc3cc(OC)ccc3[nH]2)cc1 | inactive: 6.36%
26 | CCc1oc2c(C)c(O)ccc2c(=O)c1-c1ccc2ccccc2n1 | inconclusive: 48.5%
27 | O=C(C[C@@H]1C=C[C@@H](NC(=O)CN2CCOCC2)[C@H](CO)O1)NC1CCCCC1 | inconclusive: 51.4%

Row | SMILES | inhibition
28 | O=C(N[C@@H]1CC[C@@H](CCNS(=O)(=O)c2ccc(Cl)cc2)O[C@H]1CO)c1cccc(F)c1 | inactive: -4.94%
29 | Cn1c2c(c(=O)n(C)c1=O)C(c1cccc(F)c1)C(C#N)=C(N)O2 (centres undefined) | active: 80.9%
30 | CC(c1ccccc1)C1CC(=O)N(c2ccc([N+](=O)[O-])cc2)C1=O (centres undefined) | inconclusive: 40.9%
31 | O=C(c1ccc([N+](=O)[O-])s1)N1CCc2ccccc2C1 | inconclusive: 46.8%
32 | COc1ccc(C(=O)NCc2nnc(SCC(=O)NO)n2Cc2ccccc2)cc1 | inactive: 11.9%
33 | CCSC1=N/C(=C\c2ccccc2)C(=O)N1c1ccc(OC)cc1 | inconclusive: 50.5%
34 | Cn1ncc(Cl)c1C(=O)Nc1cccnc1 | inactive: 6.9%
35 | C[C@H]1CN([C@@H](C)CO)C(=O)c2cc(C#Cc3ccc(F)cc3)cnc2O[C@@H]1CN(C)C(=O)Nc1ccc(F)cc1 | inconclusive: 44%
36 | COc1ccccc1-c1cn(CC[C@@H]2CC[C@H](NC(=O)CCN3CCCCC3)[C@H](CO)O2)nn1 | inactive: -1.26%
37 | O=C(c1ccco1)N1N=C(c2ccc(Cl)cc2)CC1(O)C(F)(F)F (centres undefined) | inconclusive: 42.3%
38 | CN1CCN(C(=O)C[C@H]2CC[C@@H]3[C@H](COC[C@@H](O)CN3CC3CCOCC3)O2)CC1 | inactive: 9.05%
39 | CCNC(=S)N(CCCN(CC)CC)Cc1cc2cc3c(cc2[nH]c1=O)OCO3 | inactive: 5.09%
40 | CCN(c1ccccc1)S(=O)(=O)c1ccc(OC)c(NC(=O)Cc2ccc(F)cc2)c1 | inconclusive: 40.3%
41 | O=C(Nc1ccc(C(F)(F)F)cc1)N1C[C@@H]2N[C@H](C1)C2c1ccc(/C=C/c2ccccc2)cc1 (some centres undefined) | active: 73.5%
42 | O=S(=O)(c1ccc(-c2ccccc2)cc1)N1C[C@@H]2N[C@H](C1)[C@@H]2c1ccc(-c2cccnc2)cc1 | inconclusive: 54.7%
43 | S=C1SCN(Cc2ccccc2)CN1Cc1ccco1 | inactive: 3.56%
44 | O=C(NCc1cccnc1)/C(=C\c1ccc(-c2ccc(Cl)c(Cl)c2)o1)S(=O)(=O)c1ccccc1 | active: 59.2%
45 | CC(C)(C)Cc1nnc(NS(=O)(=O)c2ccc(F)cc2)s1 | inconclusive: 43.4%
46 | CC1=CC(C)(C)N(S(=O)(=O)c2ccc(C)cc2)c2cc(C)ccc21 | inactive: -40.1%
47 | Cc1c(Nc2cc(Cl)c3nonc3c2[N+](=O)[O-])c(=O)n(-c2ccccc2)n1C | inconclusive: 40.4%
48 | O=[N+]([O-])c1nn(-c2ccc(Cl)cc2)n(O)c1=NCc1ccncc1 | inconclusive: 45.7%
49 | O=C(COc1ccc(Br)cc1)NCCNC(=O)c1cccnc1 | inconclusive: 44.9%
50 | CCOc1ccc(CN2CCNC(=O)C2CC(=O)NCc2ccccn2)cc1 (centres undefined) | inconclusive: 47.6%
51 | Nc1cc(N)nc(SCC(=O)Nc2ccccc2N2CCOCC2)n1 | inconclusive: 41.4%
52 | Nc1cc2ccncc2c2ccccc12 | inconclusive: 41.5%
53 | CC12CC(c3ccccc3O1)N(C(=O)c1ccc(Br)o1)C(=O)N2c1ccccc1 (centres undefined) | inconclusive: 44.3%
54 | COc1ccc(OC)c(Nc2ccc(C(=O)O)cc2[N+](=O)[O-])c1 | inconclusive: 42.4%

Row | SMILES | inhibition
55 | C[C@@H]1CCCCO[C@H](CN(C)Cc2ccc(Cl)c(Cl)c2)[C@H](C)CN([C@@H](C)CO)C(=O)c2cc(NC(=O)Nc3ccc(F)cc3)ccc2O1 | inconclusive: 43.1%
56 | Cc1sc2ncnc(N3CCC(C(=O)NNC(=O)COc4ccc(Cl)cc4)CC3)c2c1C | inconclusive: 45.9%
57 | N/C(=N\OC(=O)Cc1ccc(Cl)cc1)c1ccccn1 | inactive: 1.59%
58 | COc1ccc(NC(=O)Nc2cccc3c2O[C@@H](CN(C)C(=O)Nc2ccc(C(F)(F)F)cc2)[C@@H](C)CN([C@@H](C)CO)C3=O)cc1 | inactive: 7.63%
59 | CN(C)C(=O)C[C@H]1C[C@@H]2c3cc(NC(=O)C4CCOCC4)ccc3O[C@@H]2[C@H](CO)O1 | inconclusive: 41.2%
60 | CCCCC(C(=O)O)C(C)CC(=O)Nc1nncs1 (centres undefined) | inconclusive: 44.9%
61 | O=C(NCc1ccccc1)C1CCN(S(=O)(=O)c2cccc3cccnc23)CC1 | inactive: 0.527%
62 | O=C(CC1S/C(=N/N=C/c2c[nH]c3ccccc23)NC1=O)Nc1ccccc1 (centres undefined) | inconclusive: 42.2%
63 | O=C(NC1CCCC1)C(c1ccncc1)N(Cc1ccccc1F)C(=O)c1csnn1 (centres undefined) | inconclusive: 46.6%
64 | Cc1cccc2cc(CN(Cc3ccc(F)cc3)Cc3nnnn3C3CCCC3)c(=O)[nH]c12 | inconclusive: 52.8%
65 | CCN(C(=O)CN1C(=O)NC2(CCCC2)C1=O)c1nc2c(C)cccc2s1 | inactive: -0.056%
66 | CCC(=O)Nc1ccc2c(c1)OC[C@@H](C)N(C(=O)c1cnccn1)C[C@H](C)[C@H](OC)CN(C)C2=O | inconclusive: 58.7%
67 | O=S(=O)(NCCSc1ccc(Cl)cc1)c1ccc(F)cc1 | inconclusive: 40.3%
68 | C[C@@H]1CCCCO[C@@H](CN(C)Cc2ccc(C(=O)O)cc2)[C@H](C)CN([C@@H](C)CO)C(=O)c2cc(NS(=O)(=O)c3cccs3)ccc2O1 | inactive: 2.75%
69 | COc1cc(C(C)=O)ccc1OCC(O)CN1CCN(c2ccc(C)c(C)c2)CC1 (centres undefined) | inconclusive: 40%
70 | C[C@@H]1CN([C@H](C)CO)C(=O)c2ccccc2-c2ccccc2CO[C@@H]1CN(C)C(=O)CCN(C)C | inactive: 3.72%
71 | CCC(=O)N[C@H]1CC[C@H](CCNC(=O)Nc2ccc(C(F)(F)F)cc2)O[C@H]1CO | inconclusive: 60.3%
72 | CC(C)Cn1cnc2c(N)nc3ccccc3c21 | inconclusive: 42.3%
73 | CCCCCCNC(=O)c1ncn[nH]1 | inconclusive: 41.2%
74 | COc1cc(NS(=O)(=O)c2ccc(N)cc2)nc(OC)n1 | inconclusive: 56.8%
75 | CC(=O)Nc1cc(C(=O)OCc2cccc([N+](=O)[O-])c2)ccc1C | inconclusive: 48.7%
76 | COCCNC(=O)CSc1nc2c(n1-c1ccccc1)CCCC2 | inconclusive: 43.7%
77 | COc1cc(CCC(=O)Nc2cc(C)cc(C)c2)cc(OC)c1OC | inconclusive: 44.6%
78 | C[C@H]1CN([C@@H](C)CO)C(=O)c2cc(C#Cc3ccccc3)cnc2O[C@@H]1CN(C)C(=O)c1ccccc1F | inconclusive: 45.9%
79 | C=C1C(=O)[C@]23C[C@H]1CCC2[C@@]1(C)C(C[C@@H]3O)[C@](C)(C(=O)OC)CC[C@@H]1OC(C)=O (some centres undefined) | active: 103%
